Data taken from article PMC6664820, “Novel natural and synthetic inhibitors of solute carriers SGLT1 and SGLT2” (Pharmacology Research & Perspectives, 2019).
Hit rate of the full screen: of about 1,900 compounds, about 40 (2%) showed an effect of 50% or more. The list shows a part of the results. Positions of bridges follow the written chain, without caps; N, C: chain ends. Non-standard residues stand in square brackets, D forms with d. Residues, ends and D or L forms follow the SMILES beside them. *: point of attachment. Octanoyl(6-Me) = CCC(C)CCCCC(=O)*; Dab = NCC[CH](N)C(=O)O

molecular target: human SGLT1 (hSGLT1) (human, UniProt P13866); test: primary screen, percent of control activity; higher = less effect of the substance; set-up: single well; conditions: 50 µM
Sequence (P13866 whole entry, looked up): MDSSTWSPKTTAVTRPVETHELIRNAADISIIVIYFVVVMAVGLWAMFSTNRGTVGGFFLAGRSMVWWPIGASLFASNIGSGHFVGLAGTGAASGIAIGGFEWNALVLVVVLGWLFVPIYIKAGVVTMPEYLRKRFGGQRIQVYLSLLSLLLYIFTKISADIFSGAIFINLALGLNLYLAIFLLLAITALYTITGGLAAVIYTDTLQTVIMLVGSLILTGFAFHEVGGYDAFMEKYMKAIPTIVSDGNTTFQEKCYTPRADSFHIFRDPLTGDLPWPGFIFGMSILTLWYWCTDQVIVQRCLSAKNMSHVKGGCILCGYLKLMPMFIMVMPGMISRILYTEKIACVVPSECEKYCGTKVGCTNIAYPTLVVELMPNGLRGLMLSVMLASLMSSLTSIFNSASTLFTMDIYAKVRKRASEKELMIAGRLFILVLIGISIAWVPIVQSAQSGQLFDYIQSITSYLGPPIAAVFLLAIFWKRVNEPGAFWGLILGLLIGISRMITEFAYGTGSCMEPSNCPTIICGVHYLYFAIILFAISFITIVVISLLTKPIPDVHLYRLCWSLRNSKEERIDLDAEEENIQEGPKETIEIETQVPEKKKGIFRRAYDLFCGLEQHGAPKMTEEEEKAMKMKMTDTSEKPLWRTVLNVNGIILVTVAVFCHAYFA
Procedure, shortened: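 Single-point screen at 50 µmol/L in CHO-hSGLT1 cells, with 160 µmol/L 1-NBD-glucose in glucose-free DMEM for 90 min at 37°C. Fluorescence from isopropanol extracts was calibrated, and CHO wild-type uptake was subtracted. Data are percent of uptake without compound.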

| Compound | NORMALIZED SGLT1 ACTIVITY (%) |
| --- | --- |
| CC1=C(C(=O)O)N2C(=O)[C@@H](NC(=O)[C@H](N)C3=CCC=CC3)C2SC1 (stereo partly shown) | 110% |
| Nc1nc(=O)c2c([nH]1)NCC(CNc1ccc(C(=O)N[C@@H](CCC(=O)[O-])C(=O)[O-])cc1)N2C=O.[Ca+2] (stereo partly shown) | 135% |
| COc1cc([C@@H]2c3cc4c(cc3[C@H](OC(C)=O)[C@H]3COC(=O)[C@H]23)OCO4)cc(OC)c1OC | 73% |
| C=C(C)[C@H]1Cc2c(ccc3c2O[C@@H]2COc4cc(OC)c(OC)cc4[C@@H]2C3=O)O1 | 251% |
| Cl.O=C(O)C1=CCNCC1 | 111% |
| CC(=O)N1CCCC1C(=O)O (stereo not shown) | 122% |
| CCC[C@@H]1CCCCN1 | 85% |
| COc1ccc(C2COc3cc(O)ccc3C2)c(OC)c1O (racemic) | 128% |
| C[N+](C)(C)CCO.[Cl-] | 97% |
| O=[N+]([O-])O[C@H]1CO[C@H]2[C@@H]1OC[C@H]2O[N+](=O)[O-] | 100% |
| CC/C(=C(/CC)c1ccc(O)cc1)c1ccc(O)cc1 | 82% |
| CN(N=O)C(=O)N[C@@H]1[C@@H](O)[C@H](O)[C@@H](CO)O[C@@H]1O | 94% |
| C#CCCCCCCCCCCCC(=O)CC(O)COC(C)=O (stereo not shown) | 120% |
| Br.CN1C2C[C@H](OC(=O)[C@H](CO)c3ccccc3)C[C@H]1[C@H]1OC21 (stereo partly shown) | 109% |
| CC(C)N(CCC(C(N)=O)(c1ccccc1)c1ccccn1)C(C)C.O=P(O)(O)O (stereo not shown) | 86% |
| CCN(CC)CCNC(=O)c1cc(Cl)c(N)cc1OC.Cl | 107% |
| COc1ccccc1OCC(O)CO (stereo not shown) | 100% |
| CNc1ccccc1C(=O)N1CCc2c([nH]c3ccccc23)C1=O | 73% |
| Cc1c(N(C)CS(=O)(=O)[O-])c(=O)n(-c2ccccc2)n1C.[Na+] | 96% |
| O=c1ccc2cc(O)c(O)cc2o1 | 134% |
| Cc1cc(O)c(C)c(O)c1C(=O)O | 102% |
| Cl.Cl.NCCCCN | 106% |
| COc1ccc2c(c1)OC[C@@H](Cc1ccc(OC)c(OC)c1)[C@@H]2O | 155% |

| Compound | NORMALIZED SGLT1 ACTIVITY (%) |
| --- | --- |
| CC1(C)CC2C1CC[C@]1(CBr)CCC3C(CC(=O)O)C(=O)O[C@@]32C1 (stereo partly shown) | 132% |
| COP(N)(=O)SC (stereo not shown) | 91% |
| CC1(C)S[C@@H]2[C@H](NC(=O)[C@H](N)c3ccc(O)cc3)C(=O)N2[C@H]1C(=O)O | 116% |
| CCC(C)CCCCC(=O)NC(CCN)C(=O)NC(C(=O)NC(CCN)C(=O)NC1CCNC(=O)C(C(C)O)NC(=O)C(CCN)NC(=O)C(CCN)NC(=O)C(CC(C)C)NC(=O)C(Cc2ccccc2)NC(=O)C(CCN)NC1=O)C(C)O.O=S(=O)(O)O (stereo not shown) ({Octanoyl(6-Me)}-[Dab]T[Dab][Dab][Dab]FL[Dab][Dab]T; lactam 4-C; configuration not given here) | 96% |
| O=C(O)Cc1cc(I)c(Oc2cc(I)c(O)c(I)c2)c(I)c1 | 218% |
| CC(=O)O.N=C(N)N/N=C/c1c(Cl)cccc1Cl | 198% |
| Cc1cccc(C(=O)O)c1O | 117% |
| C=CC1=C(C)/C(=C/c2[nH]c(Cc3[nH]c(/C=C4\NC(=O)C(C)=C4C=C)c(C)c3CCC(=O)O)c(CCC(=O)O)c2C)NC1=O | 105% |
| O=C(O)/C=C/C=C/c1ccccc1 | 216% |
| Cc1ncc(CNC(=O)N(CCCl)N=O)c(N)n1 | 108% |
| CCOc1ccc(C(=O)c2cc(O)c(OC)c(OC)c2O)cc1 | 203% |
| COc1cccc(/C=C/C(=O)O)c1C(C)C | 128% |
| CC(=O)Oc1ccc2c(c1OC(C)=O)OCC1(O)Cc3c(cc(OC(C)=O)c(OC(C)=O)c3OC(C)=O)C21 (stereo not shown) | 100% |
| CCCCC(=O)O[C@H]1CC[C@H]2[C@@H]3CCc4cc(O)ccc4[C@H]3CC[C@]12C | 139% |
| O=C(O)c1cc(O)c2ccc(Cl)cc2n1 | 94% |
| O=C(OC[C@H]1O[C@@H](OC(=O)c2cc(O)c(O)c(OC(=O)c3cc(O)c(O)c(O)c3)c2)[C@H](OC(=O)c2cc(O)c(O)c(OC(=O)c3cc(O)c(O)c(O)c3)c2)[C@@H](OC(=O)c2cc(O)c(O)c(OC(=O)c3cc(O)c(O)c(O)c3)c2)[C@@H]1OC(=O)c1cc(O)c(O)c(OC(=O)c2cc(O)c(O)c(O)c2)c1)c1cc(O)c(O)c(OC(=O)c2cc(O)c(O)c(O)c2)c1 | 120% |
| CCCCCCCCCc1ccc(O)cc1 | 107% |
| CO/N=C(\C(=O)N[C@@H]1C(=O)N2C(C(=O)OCOC(=O)C(C)(C)C)=C(/C=C\c3scnc3C)CS[C@H]12)c1csc(N)n1 | 121% |
| Cl.NCCCCC(=O)O | 123% |
| CC(C(=O)O)c1ccc(-c2ccccc2)c(F)c1 (stereo not shown) | 243% |
| CCCCCCOc1ccccc1C(N)=O | 235% |
| C[C@]12CCC3c4ccc(O)cc4CCC3C1CC[C@@H]2O (stereo partly shown) | 128% |
| C[N+]12CCC(CC1)C(OC(=O)C(O)(c1ccccc1)c1ccccc1)C2.[Br-] (stereo not shown) | 103% |

| Compound | NORMALIZED SGLT1 ACTIVITY (%) |
| --- | --- |
| COc1ccc2c(c1O)-c1c(OC)c(OC)cc3c1[C@H](C2)N(C)CC3 | 84% |
| N[C@@H](Cc1ccccc1)C(=O)N[C@@H](Cc1ccc(O)cc1)C(=O)O (H-Phe-Tyr-OH) | 112% |
| COc1c2occc2cc2ccc(=O)oc12 | 464% |
| CC1CCc2cc(F)cc3c(=O)c(C(=O)O)cn1c23 (stereo not shown) | 191% |
| O=C(/C=C/c1ccccc1)c1ccc(O[C@@H]2O[C@H](CO)[C@@H](O)[C@H](O)[C@H]2O)cc1O | 106% |
| Cc1cc(=O)c2c(O)c3c(cc2o1)OC(C)(C)CC3 | 138% |
| CC1(C)[C@@H]2CC[C@@]1(C)C(=O)C2 | 108% |
| C#C[C@]1(O)CCC2C3CCc4cc(O)ccc4C3CC[C@@]21C (stereo partly shown) | 99% |
| CC(=O)Nc1ccccc1 | 112% |
| Nc1ccc(C(=O)[O-])c(O)c1.[Na+] | 140% |
| COc1ccc(-c2cc(=O)c3cc(OC)ccc3o2)cc1 | 109% |
| COc1cc(OC)c2c(=O)c(-c3ccc4c(c3)OCO4)coc2c1 | 142% |
| NC(Cc1ccc(Cl)cc1)C(=O)O (stereo not shown) | 82% |
| CC(C)N1C(=O)c2ccccc2NS1(=O)=O | 115% |
| CC(=O)c1c(O)c(C)c(O)c2c1OC1=CC(=O)C(C(C)=O)C(=O)C12C (stereo not shown) | 220% |
| Nc1nc2c(ncn2[C@H]2C[C@H](O)[C@@H](CO)O2)c(=O)[nH]1 | 152% |
| CC(C)[C@]12O[C@H]1[C@@H]1O[C@@]13[C@@]1(C)CCC4=C(COC4=O)[C@@H]1C[C@@H]1O[C@@]13C2=O | 125% |
| C[C@@H]([C@H](O)c1ccccc1)N(C)C | 115% |
| COc1ccc(-c2coc3c(OC)c(OC)cc(OC)c3c2=O)cc1 | 274% |
| CC(C)=CCc1c(O)cc2occ(-c3ccc4c(c3)OCO4)c(=O)c2c1O | 135% |
| COc1ccc2c(C)cc(=O)oc2c1 | 124% |
| CC(COc1ccccc1)N(CCCl)Cc1ccccc1.Cl (stereo not shown) | 35% |
| COc1ccc([C@@H]2CC(=O)c3c(O)cc(O[C@@H]4O[C@H](CO[C@H]5O[C@@H](C)[C@H](O)[C@@H](O)[C@H]5O)[C@@H](O)[C@H](O)[C@H]4O)cc3O2)cc1O | 96% |

| Compound | NORMALIZED SGLT1 ACTIVITY (%) |
| --- | --- |
| CN(C)/N=N/c1[nH]cnc1C(N)=O | 99% |
| COc1cc([C@@H]2c3cc4c(c(O)c3C[C@H]3COC(=O)[C@@H]32)OCO4)cc(OC)c1OC | 118% |
| C[C@H](COc1ccccc1)N[C@H](C)[C@H](O)c1ccc(O)cc1.Cl | 119% |
| CC(C)Cn1c(=O)n(C)c(=O)c2nc[nH]c21 | 114% |
| CC(C)=CCCC1(C)C=Cc2c(O)c3c(c(CC=C(C)C)c2O1)OC12C(=CC4CC1C(C)(C)OC2(C/C=C(/C)C(=O)O)C4O)C3=O (stereo not shown) | 174% |
| N.N.[Cl][Pt][Cl] | 90% |
| O=C(/C=C/c1ccc(O)c(O)c1)OCCc1ccccc1 | 245% |
| O=C(O)CC[N+](=O)[O-] | 90% |
| NC(=O)c1cc[n+](CC2=C(C(=O)O)N3C(=O)[C@@H](NC(=O)[C@@H](c4ccccc4)S(=O)(=O)[O-])[C@H]3SC2)cc1 | 185% |
| CCCCCCCCCc1ccc(OCCOCCOCCOCCOCCOCCOCCOCCOCCO)cc1 | 68% |
| O=C(O)c1cn(C2CC2)c2cc(N3CCNCC3)c(F)cc2c1=O | 76% |
| CC1(C)S[C@@H]2[C@H](NC(=O)[C@H](NC(=O)N3CCNC3=O)c3ccccc3)C(=O)N2[C@H]1C(=O)O | 100% |
| Nc1nc(/C(=C/CC(=O)O)C(=O)N[C@@H]2C(=O)N3C(C(=O)O)=CCS[C@H]23)cs1 | 80% |
| C=C1C(N)CC2CC1C2(C)C.Cl (stereo not shown) | 73% |
| C=C1CCC(C2CC(=O)OC2=O)C(=O)CCC2C1CC2(C)C (stereo not shown) | 96% |
| C[C@H]1OC(O[C@H]2[C@@H](O)CC(O[C@H]3[C@@H](O)C[C@H](O[C@H]4CC[C@]5(C)C6CC[C@]7(C)[C@@H](C8=CC(=O)OC8)[C@@H](O)C[C@]7(O)[C@@H]6CC[C@@H]5C4)O[C@@H]3C)O[C@@H]2C)C[C@H](O)C1O (stereo partly shown) | 90% |
| c1ccc(-c2ccc(C(c3ccccc3)n3ccnc3)cc2)cc1 (stereo not shown) | 78% |
| COc1cccc(-c2cc(=O)c3ccc(OC)cc3o2)c1 | 187% |
| CC1(C)C2CC[C@]3(C)C(C(=O)C=C4[C@@H]5C[C@@](C)(C(=O)O)CC[C@]5(C)CC[C@]43C)[C@@]2(C)CC[C@@H]1O (stereo partly shown) | 339% |
| CC(C)OC(=O)Nc1cccc(Cl)c1 | 256% |
| Cc1cc(O)c2c(c1)C(=O)c1cccc(O)c1C2=O | 121% |
| O=C(O)c1cc2cc(Cl)ccc2[nH]1 | 238% |
